# The whole screen tested about 150,000 compounds, of which about 540 (0.36%) showed an effect of 50% or more. This is one part of the list.
# Test system: Plasmodium falciparum
# Experiment: Primary screen in NF54 nanoGlo assay, in single point, at 2uM, 72h; a lower Z score goes with more inhibition
# Format: functional, Erythrocyte
# Conditions: timepoint 72 hour
SMILES,% Inhibition [%],Z score
COc1ccc(NC(=O)C[C@@H](C)CC(=O)NCc2ccc(F)cc2)c(OC)c1,2,-0.34
CN1CCC(O)(CCNC(=O)[C@H](O)c2ccc3ccccc3c2)CC1,3,-0.47
Cn1nccc1[C@@H]1CCCCN1C(=O)c1cccc(F)c1F,-3,0.56
COC(=O)[C@@H]1C[C@@H](O)CN1Cc1ccncc1Cl,-4,0.5
Cc1nnc(-c2ccccc2-c2ccc(S(C)(=O)=O)cc2)o1,-13,1.78
FC(F)(F)c1ccc2sc(N3CCOC[C@H]3c3nc(-c4cccs4)no3)nc2c1,-31,3.68
O=C1NCCN1C(=O)N1CC[C@H](Oc2cccc3cccnc23)C1,-10,2
O[C@H]1[C@H](NCc2ccccc2Cl)[C@H]2CO[C@H](O2)[C@@H]1n1cc(Cl)cn1,33,-3.78
CN(C)c1nc(N)nc(Cn2ccc(-c3cccs3)n2)n1,-2,0.3
CN1CCO[C@H](C(=O)Nc2cc(C3CCCC3)nn2C)C1,0,-0.03
COc1ccc(C(=O)NC2CCC(O)(c3cccc(F)c3)CC2)nc1 (stereo not drawn),-11,1.33
Cc1c(Cl)cccc1NC(=O)C1CN(S(C)(=O)=O)C1,-14,2.13
O=C(Nc1ccc(OC2CCCC2)c(Cl)c1)C(=O)N1CCC(O)CC1,1,-0.06
O=C(c1ccccc1)[C@@H]1[C@@H]2C(=O)N(c3cccc(F)c3)C(=O)[C@@H]2C2CCCN21 (stereo partly drawn),7,-0.86
CCCCNC(=O)CN(C)[C@@H](C(=O)O)c1ccc(F)c(C)c1,12,-1.62
Cc1[nH]nc(C(=O)N2CCC(C(=O)c3c(F)cc(F)cc3F)CC2)c1C,-3,0.63
O=S(=O)(NCCCn1ccc2cccnc21)C1CC1,-8,1.19
O=C(CCc1cn[nH]c1)N1CCC[C@H](OCc2ccccc2)C1,-1,0.13
CN=C(NCc1cnc(C)s1)NC1CCC(C)CC1 (stereo not drawn),-1,0.13
CC(=O)N1CC[C@H](c2nc(CCOc3ccc(F)cc3)no2)C1,-11,1.49
CCc1noc(CC)c1CN[C@@H](C)C1CC1,-10,1.48
Cc1cc(N2CC(OCc3ccccc3)C2)nc(Nc2cccc(O)c2)n1,91,-12.9
O=C(O)c1cccc(N2CCO[C@H](c3ccc(Cl)cc3)C2)n1,-1,0.23
CC1CCN(c2nnc(-c3nc(C4CC4)no3)c3ccccc23)CC1,-16,2.53
COCc1nc(C)nc(N2CCN(C(=O)N(C)C)CC2)c1Cc1cccc(OC)c1,-10,1.81
O=C(CC[C@@H]1N=C(O)N(c2ccccc2)C1=O)NCCc1c[nH]c2ccccc12,-4,0.52
COCC1(NC(=O)c2cnc(C)c(C)c2)CCCC1,-19,1.81

SMILES,% Inhibition [%],Z score
C[C@@H](CCNC(=O)CC1CCN(S(=O)(=O)c2ccccc2)CC1)N1CCCC1,-5,0.93
O=C(NCCNCc1ccc(Cl)cc1)c1ccncc1,0,0.03
CC(C)C(=O)NCCc1noc(Cc2ccccc2)n1,-7,0.87
C=CCC(C(=O)NC1CC[C@@H](O)[C@@H](O)C1)c1ccccc1 (stereo partly drawn),-16,1.98
Cc1ccccc1N1CCN(S(=O)(=O)c2cc(-c3nc(C)c(C)s3)cs2)CC1,1,-0.16
Cc1cc(Br)cc(C(=O)N[C@@H](C)c2nc[nH]n2)c1,32,-3.64
C#Cc1cccc(N(Cc2ccco2)Cc2cc(=O)n(C)c(=O)n2C)c1,9,-1.43
CCn1cc(C#N)c(=O)n(CC(=O)N2CCN(c3cccc(C(F)(F)F)c3)CC2)c1=O,-9,0.94
CCCCN(C)C(=O)Cn1cccc(S(=O)(=O)N2CCC(C)CC2)c1=O,-4,0.6
Cc1ncsc1CNC(C)CC(O)c1ccco1 (stereo not drawn),0,-0.01
N#Cc1cccc(CN[C@H]2CCN(CC(F)(F)F)C2)c1,-5,0.74
CC[C@H]1CCc2c(sc(=O)n2Cc2nccn2C(F)F)C1,-40,4.74
C#CCOc1ccc(N(C)Cc2nnc(CC)n2C)cc1,-7,0.94
Cc1nc(CN[C@H](c2cc(F)ccc2F)C2CC2)oc1C,5,-0.66
COc1ccc(CN2C(=O)N[C@@H](CC(=O)Nc3ccccn3)C2=O)cc1OC,-10,1.29
CCc1ccc(N2C(=O)c3cc(-c4ccc(OC)cc4)nn3C[C@@]2(C)C(=O)NCc2ccccc2OC)cc1,12,-1.85
N#Cc1c2n(c(=O)n(CC(=O)N(Cc3ccccc3)Cc3ccccc3)c1=O)CCC2,12,-1.45
Cc1cc(C)c(C#N)c(NCc2cc(CC(C)C)no2)n1,-8,0.89
CC(=O)N1CCO[C@@H](CNC(=O)c2ccn(C)c2C)C1,-5,0.72
Cc1cc(C)n2c(-c3nc(C4CC4)n[nH]3)nnc2n1,-14,2.56
COCCNC(=O)COc1ccc2c(C(C)C)cc(=O)n(CC3CC3)c2c1,-8,0.92
COC(=O)C1(NCc2noc(C)n2)CCC1,-15,1.89
Cc1cc(C)cc(CN2CCN(Cc3cnn(C)c3C3CC3)CC2=O)c1,-5,0.65
CCOC(=O)C1CCCN(C(=O)C2CCCN(c3cccc4c3C(=O)N(Cc3ccccc3Cl)C4=O)C2)C1 (stereo not drawn),4,-0.67
Cc1ccc(CC(C)NC(=O)NCCC2CCCO2)s1 (stereo not drawn),-22,2.04
C[C@]1(Cc2cc(F)c(F)c(F)c2)CCC(=O)N1,-10,1.31
O=C1CCCc2cc(-c3csc(NC4CC4)n3)ccc2N1,-8,1

# Reference: ChEMBL document CHEMBL4888484, “Replenishing the malaria drug discovery pipeline: Screening and hit evaluation of the MMV Hit Generation Library 1 (HGL1) against asexual blood stage Plasmodium falciparum ,using a nano luciferase reporter read-out” (2022)
